# The list shows a part of the results. Most values come without repeats; read them as rough.
# Test system: Salmonella enterica serovar Typhimurium SL1344
# Experiment: bacterial growth OD600 after 18 h in MHB with 0.5 µg/mL polymyxin B; higher = more bacterial growth (less inhibition)
# Conditions: 25 µM; polymyxin B 0.5 µg/mL; system: broth
# Protocol: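 Secondary screen of the 553 primary hits at 25 µM. (i) S. Typhimurium SL1344 grown in Mueller-Hinton broth with 0.5 µg/mL polymyxin B, OD600 read after 18 h. (ii) SAFIRE assay: RAW 264.7 macrophages infected with S. Typhimurium sifB::gfp (MOI 30); compound added 2 h post-infection; cells fixed at 18 h; GFP-positive pixel fraction per macrophage imaged by confocal microscopy and expressed as % of DMSO control.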
# 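Also: polymyxin B level opens the outer membrane while sparing the inner membrane, with novobiocin wells as reference growth inhibitor.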
row,SMILES,bacterial growth OD600
1,O=C(Nc1ccc(-c2ccco2)cc1)C1CCCN(Cc2cccc3nonc23)C1 (stereo not given),0.429
2,Cc1nonc1CN(C)C(=O)CC(c1ccccc1)c1cccc(Cl)c1 (stereo not given),0.181
3,COc1cccc(-c2nc3ccc(C(=O)NCCc4scnc4C)cc3o2)c1,0.282
4,COCCn1cnc2cc(NC(=O)C3CCCCC3)cc(C(=O)N3CCC(c4ccccc4)CC3)c21,0.114
5,O=C(Nc1cnn(-c2ccc(C(=O)N3CCN(c4ccccc4Cl)CC3)cc2)c1)C1CCOCC1,0.244
6,COc1ccc(-c2nc(CN(Cc3ccccc3)C[C@@H]3CCC(=O)N3)c(C)o2)cc1C,-0.008
7,O=C(Nc1ccc(-c2cscn2)cc1)C1CCCN1Cc1ccccc1 (stereo not given),0.048
8,Cc1cccc(C(=O)NCc2nc(-c3ccccc3NC(=O)CC3CCCC3)oc2C)n1,-0.003
9,CO[C@H]1[C@H](NC(=O)c2ccccn2)c2ccccc2C12CCN(C(=O)C#Cc1ccccc1)CC2,0.001
10,O=C(/C=C/c1cccc(F)c1)N(Cc1ccncc1)Cc1cccc(OCCc2ccc(F)cc2)c1,-0.002
11,COc1cc(CN2CCOc3ccc(C(O)CCc4ccccc4)cc3C2)cc(OC)c1 (stereo not given),-0.008
12,CN(Cc1ccccc1)C1(C(=O)N2CCC[C@H]2CO)Cc2ccccc2C1,0.526
13,O=C1N(C2Cc3ccccc3C2)C[C@@H]2C[C@@H](c3cccn3-c3cccnc3)N3CCC[C@@]123,0.51
14,CCC1CN(Cc2ccc3ncccc3c2)Cc2cc(OC)ccc2O1 (stereo not given),0.011
15,CCOC(=O)CN(C)c1ccc(-c2nc(-c3cccc(OC)c3OC)no2)cn1,0.489
16,COc1ccc(CCC(=O)N2CCC(CO)(Cc3ccc(Cl)cc3)CC2)cc1,0.003
17,COc1ccc(C(=O)N(Cc2ccc(OC)c(OCc3cccs3)c2)C2CCCC2)c(OC)c1,0.005
18,COc1cc(CC2(CCC(=O)N(C)Cc3cnn(-c4ccccc4C)c3)CCC(=O)N2)ccc1F (stereo not given),0.437
19,Cc1csc(SCC(=O)N2CCC3(CC2)CC3C(=O)NCCc2nc3ccccc3n2C)n1 (stereo not given),0.389
20,O=C(c1ccsc1)N1CCc2[nH]nc(-c3ccc(F)c(F)c3)c2C1,0.005

row,SMILES,bacterial growth OD600
1,COc1cccc(NC(=O)CCC2CCN(S(=O)(=O)c3cc(C)cs3)CC2)c1,-0.002
2,COc1ccc(-c2noc(CN(C)Cc3cnn(-c4ccccc4C)c3)n2)cc1,0.008
3,Cc1cc(CN(C)c2ccc(-c3nc(-c4ccccc4F)no3)cn2)on1,0.576
4,CCOc1ccc2nc(N3CCC(NC(Cn4cccn4)c4ccccc4)CC3)nc(C)c2c1 (stereo not given),-0.023
5,O=C(c1coc(COc2ccc3c(c2)OCO3)n1)N1CCCC(c2ccccc2)C1 (stereo not given),-0.002
6,Cc1cccc(CNCC2(O)CCCN(CC3CC3)C2=O)n1 (stereo not given),0.637
7,O=C(NCC[C@@H]1C[C@@H]2C=C[C@H]1C2)c1cccc(OC2CCN(C(=O)C3CC3)CC2)c1,0
8,O=C(NC1CCOC1)c1cc(COc2ccc3c(c2)CCCC3)on1 (stereo not given),0.354
9,Cc1nonc1CN(C)C(=O)C1CCN(c2nc(-c3ccccc3)nc3c2CCC3)CC1,0.001
10,COc1cc(CN2CCCC(CO)(Cc3cccc(Cl)c3)C2)cc(Cl)c1OC (stereo not given),-0.008
11,O=C(NCC1CC2C=CC1C21CC1)c1cc(Cc2ccc(F)cc2)no1 (stereo not given),-0.005
12,COc1ccc2c(c1)OC(C)CN(C(=O)/C(F)=C/c1ccccc1)C2 (stereo not given),-0.006
13,O=C(CCC1(Cc2ccc3ccccc3c2)CCC(=O)N1)NCc1cccc(Cl)c1 (stereo not given),0
14,COc1ccccc1CNC(=O)c1c(OC)cc(=O)n2c1CCN(CC1=CC[C@H]3C[C@@H]1C3(C)C)CC2,0.011
15,Cc1cc(-c2cc(F)cc3c2OC(CNC(=O)c2ccco2)C3)ccc1F (stereo not given),0
16,CCOC(=O)C1(C/C=C/c2ccccc2)CCCN(C(=O)CCn2ccc(C)n2)C1 (stereo not given),0.004
17,O=C(CC(c1ccccc1)c1ccc2c(c1)OCO2)N1CCCO1 (stereo not given),0.566
18,COc1cccc(-c2cnc(-c3ccncc3)nc2C2CCN(Cc3cn(C)c4ccccc34)CC2)c1,0.003
19,CCOC(=O)C1(CCCc2ccccc2)CCN(C(=O)c2ccc(OC)o2)CC1,-0.001
20,CN(C(=O)c1ccccn1)C(Cc1ccccc1)C1CCN(C(=O)/C(F)=C/c2ccccc2)CC1 (stereo not given),0.022

# — the supplement of paper PMC12889115
